# Experimental data from patent US20250115571A1, “OXOPIPERAZINE DERIVATIVES” (Inthera Bioscience AG, priority 2017, published 2025).
# The name of at least one read-out is uncertain. Marks after values point to notes of the source that are not given here.
# System: CaSki cells
# Assay: Colony Formation Assay (CFA), 14 days
# Type: cell-based, human
# Settings: colony formation assay, class by % inhibition at 0.7, 6 or 50 μM
row,Compound,Activity (inhibition of colony formation)
1,"Cc1nc(CC2CCN(C(=O)[C@H](CC(C)C)N3CCN[C@@H](CC(C)C)C3=O)CC2)n(C)c1C [Compound 20, (S)-1-[(S)-3-Methyl-1-({4-[(1-methyl-4,5-dimethyl-1H-imdiazol-2-yl)methyl]-1-piperidyl}car-bonyl)butyl]-3-isobutyl-2-piperazinone]",+++ (more than 90% inhibition of colony formation at a concentration of 50 μM)
2,"CC(C)C[C@@H]1NCCN([C@@H](CC(C)C)C(=O)N2CCC3(CC2)CC(CN(C)C)C3)C1=O [Compound 236, (S)-1-[(S)-1-({2-[(Dimethyl-amino)methyl]-7-aza-7-spiro[3.5]nonyl}car-bonyl)-3-methylbutyl]-3-isobutyl-2-piperazinone]",*+ (greater than 0% but less than or equal to 50% inhibition of colony formation at a concentration of 0.7 μM)
3,"CCc1nc(CC2CCN(C(=O)[C@H](CC(C)C)N3CCN[C@@H](CC(C)C)C3=O)CC2)[nH]c1CC [Compound 78, (S)-1-[(S)-1-({4-[(4,5-Diethyl-1H-imidazol-2-yl)methyl]-1-piperidyl}carbonyl)-3-methylbutyl]-3-isobutyl-2-piperazinone]",++ (more than 50% inhibition of colony formation at a concentration of 50 μM)
4,"CC(C)C[C@@H]1NCCN([C@@H](CC(C)C)C(=O)N2CCC(c3ncc[nH]3)CC2)C1=O [Compound 28, (S)-1-[(S)-1-{[4-(1H-Imidazol-2-yl)-1-piperidyl]carbonyl}-3-methylbutyl]-3-isobutyl-2-piperazinone]",+* (greater than 0% but less than or equal to 50% inhibition of colony formation at a concentration of 50 μM)
5,"CC(C)C[C@@H]1NCCN([C@@H](CC(C)C)C(=O)N2CCC(Cc3nc4ccccc4[nH]3)CC2)C1=O [Compound 59, (S)-1-[(S)-1-({4-[(1,3-Benzimidazol-2-yl)methyl]-1-piperidyl}carbonyl)-3-methylbutyl]-3-isobutyl-2-piperazinone]",++ (more than 50% inhibition of colony formation at a concentration of 50 μM)
6,"CC(C)C[C@@H]1NCCN([C@@H](CC(C)C)C(=O)N2CCC3(C[C@@H]2C)OCC(CN(C)C)CO3)C1=O (stereo partly drawn) [Compound 245, (S)-1-[(S)-1-({(S)-3-[(Dimethyl-amino)methyl]-8-methyl-1,5-dioxa-9-aza-9-spiro[5.5]un-decyl}car-bonyl)-3-methylbutyl]-3-isobutyl-2-piperazinone]",++++ (more than 90% inhibition of colony formation at a concentration of 6 μM)
7,"CC(C)C[C@@H]1NCCN([C@@H](CC(C)C)C(=O)N2CCC(C(C)C(N)=O)CC2)C1=O (stereo partly drawn) [Compound 125, 2-(1-{(S)-2-[(S)-3-Isobutyl-2-oxo-1-piperazinyl]-4-methylvaleryl}-4-piperidyl)propiona-mide]",+* (greater than 0% but less than or equal to 50% inhibition of colony formation at a concentration of 50 μM)
8,"CCCC[C@@H]1NCCN([C@@H](CCCC)C(=O)N2CCC(CC(N)=O)CC2)C1=O [Compound 107, (1-{(S)-2-[(S)-3-Butyl-2-oxo-1-piperazinyl]hex-anoyl}-4-piperidyl)acetamide]",+* (greater than 0% but less than or equal to 50% inhibition of colony formation at a concentration of 50 μM)
9,"CC(C)C[C@@H]1NCCN([C@@H](CC(C)C)C(=O)N2CCC(C)(CC(N)=O)CC2)C1=O [Compound 74, (1-{(S)-2-[(S)-3-Isobutyl-2-oxo-1-piperazinyl]-4-methylvaleryl}-4-methyl-4-piperidyl)acetamide]",++ (more than 50% inhibition of colony formation at a concentration of 50 μM)
10,"CC(C)C[C@@H]1NCCN([C@@H](CC(C)C)C(=O)N2CCC3(C[C@@H]2C)OCC(C)(CN(C)C)CO3)C1=O (stereo partly drawn) [Compound 302, (S)-1-[(S)-1-({(S)-3-[(Dimethyl-amino)methyl]-3,8-dimethyl-1,5-dioxa-9-aza-9-spiro[5.5]un-decyl}carbonyl)-3-methylbutyl]-3-isobutyl-2-piperazinone]",++++ (more than 90% inhibition of colony formation at a concentration of 6 μM)
11,"Cc1nc(CC2CCN(C(=O)[C@H](CC(C)C)N3CCN[C@@H](CC(C)C)C3=O)CC2)n(CC2CC2)c1C [Compound 38, (S)-1-[(S)-1-[(4-{[1-(Cyclopropylmethyl)-4,5-dimethyl-1H-imidazol-2-yl]methyl}-1-piperidyl)carbonyl]-3-methylbutyl]-3-isobutyl-2-piperazinone]",+++ (more than 90% inhibition of colony formation at a concentration of 50 μM)
12,"CC(C)C[C@@H]1NCCN([C@@H](CC(C)C)C(=O)N2CCC(CCN3CCC[C@H]3C)CC2)C1=O [Compound 265, (S)-1-[(S)-1-[(4-{2-[(R)-2-Methyl-1-pyrrolidinyl]ethyl}-1-piperidyl)carbonyl]-3-methylbutyl]-3-isobutyl-2-piperazinone]",++++ (more than 90% inhibition of colony formation at a concentration of 6 μM)
13,"CC(C)C[C@@H]1NCCN([C@@H](CC(C)C)C(=O)N2CCC(OCC(N)=O)CC2)C1=O [Compound 111, (1-{(S)-2-[(S)-3-Isobutyl-2-oxo-1-piperazinyl]-4-methylvaleryl}-4-piperidyloxy)aceta-mide]",+* (greater than 0% but less than or equal to 50% inhibition of colony formation at a concentration of 50 μM)
14,"CC(C)C[C@H]1C(=O)N([C@@H](CC(C)C)C(=O)N2CCC3(C[C@H]2C)OCC(CN2CCCC2)CO3)CCN1C (stereo partly drawn) [Compound 246, (S)-1-[(S)-1-({(R)-8-Methyl-3-[(1-pyrrolidinyl)methyl]-1,5-dioxa-9-aza-9-spiro[5.5]un-decyl}carbonyl)-3-methylbutyl]-3-isobutyl-4-methyl-2-piperazinone]",++++ (more than 90% inhibition of colony formation at a concentration of 6 μM)

# Same assay, conditions: inhibition of colony formation, 14 days, classes at 6, 50 or 0.7 μM
row,Compound,Activity
1,"COc1ccccc1OCC1CCN(C(=O)[C@H](CC(C)C)N2CCN[C@@H](CC(C)C)C2=O)CC1 [Compound 173, (S)-1-[(S)-1-({4-[(o-Methoxy-phenoxy)methyl]-1-piperidyl}carbonyl)-3-methylbutyl]-3-isobutyl-2-piperazinone]",++ (more than 50% inhibition of colony formation at a concentration of 50 μM)
2,"Cc1ccc(OCC2CCN(C(=O)[C@H](CC(C)C)N3CCN[C@@H](CC(C)C)C3=O)CC2)cc1 [Compound 168, (S)-1-[(S)-3-Methyl-1-({4-[(p-tolyloxy)methyl]-1-piperidyl}car-bonyl)butyl]-3-isobutyl-2-piperazinone]",+++ (more than 90% inhibition of colony formation at a concentration of 50 μM)
3,"COc1ccc(OCC2CCN(C(=O)[C@H](CC(C)C)N3CCN[C@@H](CC(C)C)C3=O)CC2)cc1 [Compound 175, (S)-1-[(S)-1-({4-[(p-Methoxy-phenoxy)methyl]-1-piperidyl}carbonyl)-3-methylbutyl]-3-isobutyl-2-piperazinone]",+++ (more than 90% inhibition of colony formation at a concentration of 50 μM)
4,"COC(=O)c1ccc(OCC2CCN(C(=O)[C@H](CC(C)C)N3CCN[C@@H](CC(C)C)C3=O)CC2)cc1 [Compound 189, Methyl p-[(1-{(S)-2-[(S)-3-isobutyl-2-oxo-1-piperazinyl]-4-methylvaleryl}-4-piperidyl)meth-oxy]benzoate]",+++ (more than 90% inhibition of colony formation at a concentration of 50 μM)
5,"CC(C)C[C@@H]1NCCN([C@@H](CC(C)C)C(=O)N2CCC(Cc3nccn3C(C)C)CC2)C1=O [Compound 156, (S)-1-[(S)-1-({4-[(1-Isopropyl-1H-imidazol-2-yl)methyl]-1-piperidyl}carbonyl)-3-methylbutyl]-3-isobutyl-2-piperazinone]",+++ (more than 90% inhibition of colony formation at a concentration of 50 μM)
6,"Cc1ccccc1OCC1CCN(C(=O)[C@H](CC(C)C)N2CCN[C@@H](CC(C)C)C2=O)CC1 [Compound 166, (S)-1-[(S)-3-Methyl-1-({4-[(o-tolyloxy)methyl]-1-piperidyl}car-bonyl)butyl]-3-isobutyl-2-piperazinone]",+++ (more than 90% inhibition of colony formation at a concentration of 50 μM)
7,"CC(C)C[C@@H]1NCCN([C@@H](CC(C)C)C(=O)N2CCC(CC(=O)NCc3ccccc3)CC2)C1=O [Compound 177, (S)-1-[(S)-1-{[4-(2-Benzylamino-2-oxoethyl)-1-piperidyl]carbonyl}-3-methylbutyl]-3-isobutyl-2-piperazinone]",++ (more than 50% inhibition of colony formation at a concentration of 50 μM)
8,"CC(C)CC(C)NC(=O)CC1CCN(C(=O)[C@H](CC(C)C)N2CCN[C@@H](CC(C)C)C2=O)CC1 (stereo partly drawn) [Compound 184, (S)-1-[(S)-1-({4-[2-(1,3-Dimethylbutylamino)-2-oxoethyl]-1-piperidyl}carbonyl)-3-methylbutyl]-3-isobutyl-2-piperazinone]",++ (more than 50% inhibition of colony formation at a concentration of 50 μM)
9,"CC(C)CCOC(=O)C1CCN(C(=O)[C@H](CC(C)C)N2CCN[C@@H](CC(C)C)C2=O)CC1 [Compound 212, Isopentyl 1-{(S)-2-[(S)-3-isobutyl-2-oxo-1-piperazinyl]-4-methylvaleryl}-4-piperidinecarboxylate]",++ (more than 50% inhibition of colony formation at a concentration of 50 μM)
10,"CCC(CC)N(Cc1ccccc1)C(=O)CC1CCN(C(=O)[C@H](CC(C)C)N2CCN[C@@H](CC(C)C)C2=O)CC1 [Compound 176, (S)-1-[(S)-1-[(4-{2-[(Benzyl)(1-ethylpropyl)amino]-2-oxoethyl}-1-piperidyl)carbonyl]-3-methylbutyl]-3-isobutyl-2-piperazinone]",+++ (more than 90% inhibition of colony formation at a concentration of 50 μM)
11,"CCCCN(CCCC)C(=O)CC1CCN(C(=O)[C@H](CC(C)C)N2CCN[C@@H](CC(C)C)C2=O)CC1 [Compound 152, (S)-1-[(S)-1-({4-[2-(Dibutylamino)-2-oxoethyl]-1-piperidyl}carbonyl)-3-methylbutyl]-3-isobutyl-2-piperazinone]",+++ (more than 90% inhibition of colony formation at a concentration of 50 μM)
